Laboratory results taken from patent US6335355B1, “Crop protection products” (Syngenta Investment Corporation, priority 1995, dated 2002).

System: Colletotrichum sp. (anthracnose)

Compound	% action O (found) (Example B10, 5 mg a.i. per liter (ppm))	% action O (found) (Example B10, 100 mg a.i. per liter (ppm))
CSC(=O)c1cccc2nnsc12 [compound ID, benzothiadiazole-7-carboxylic acid thiomethyl ester]	55%	–
manganese ethylenebis (dithiocarbamate) polymer-zinc complex [compound IIL]	–	12%

Read-outs that look alike come from different tables or passages of the source.
